The supplement of paper PMC9174493
The list shows a part of the results. Single values of this set are uncertain. Values with irradiation are relative to irradiated vehicle.

Columns and labels:
A549-Dual [1] = test: NF-kB reporter (SEAP) activity, viability-corrected, relative to vehicle (fold change vs vehicle); higher = more activation of STING-IRF / NF-kB immune response reporter
A549-Dual [2] = test: ISRE reporter (Lucia luciferase) activity, viability-corrected, relative to vehicle (fold change vs vehicle); higher = more activation of STING-IRF / NF-kB immune response reporter
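For NF-kB reporter (SEAP) activity, viability-corrected, relative to vehicle in this document: viability correction based on the alamar blue assay, with concentrations leaving 10% survival or less dropped.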

Structure (SMILES) | NF-kB reporter (A549-Dual [1]; 0.1 µM, irradiation: 8 Gy/4 fr) | NF-kB reporter (A549-Dual [1]; 0.1 µM, irradiation: none) | NF-kB reporter (A549-Dual [1]; 0.3 µM, irradiation: 8 Gy/4 fr) | NF-kB reporter (A549-Dual [1]; 0.3 µM, irradiation: none) | NF-kB reporter (A549-Dual [1]; 1 µM, irradiation: 8 Gy/4 fr) | NF-kB reporter (A549-Dual [1]; 1 µM, irradiation: none) | NF-kB reporter (A549-Dual [1]; 3 µM, irradiation: 8 Gy/4 fr) | NF-kB reporter (A549-Dual [1]; 3 µM, irradiation: none) | NF-kB reporter (A549-Dual [1]; 10 µM, irradiation: 8 Gy/4 fr) | NF-kB reporter (A549-Dual [1]; 10 µM, irradiation: none) | ISRE reporter (A549-Dual [2]; 0.1 µM, irradiation: 8 Gy/4 fr) | ISRE reporter (A549-Dual [2]; 0.1 µM, irradiation: none) | ISRE reporter (A549-Dual [2]; 0.3 µM, irradiation: 8 Gy/4 fr) | ISRE reporter (A549-Dual [2]; 0.3 µM, irradiation: none) | ISRE reporter (A549-Dual [2]; 1 µM, irradiation: 8 Gy/4 fr) | ISRE reporter (A549-Dual [2]; 1 µM, irradiation: none) | ISRE reporter (A549-Dual [2]; 3 µM, irradiation: 8 Gy/4 fr) | ISRE reporter (A549-Dual [2]; 3 µM, irradiation: none) | ISRE reporter (A549-Dual [2]; 10 µM, irradiation: 8 Gy/4 fr) | ISRE reporter (A549-Dual [2]; 10 µM, irradiation: none)
CC(C(=O)O)c1ccc(CC2CCCC2=O)cc1 (stereo not given) [Loxoprofen] | 1.33 | 1.83 | 1.71 | 1.53 | 1.74 | 1.52 | 1.69 | 1.19 | 1.51 | 1.13 | 1.2 | 1.36 | 1.38 | 1.1 | 1.13 | 1.2 | 1.11 | 1.27 | 1.16 | 0.818
CN1CCC(=C2c3ccccc3CCc3cccnc32)CC1.O=C(O)/C=C\C(=O)O.O=C(O)/C=C\C(=O)O [Azatadine dimaleate] | 0.857 | 1.1 | 1.01 | 1.55 | 1.21 | 1.04 | 0.925 | 1.04 | 0.973 | 0.883 | 0.969 | 0.926 | 0.916 | 0.913 | 0.825 | 0.806 | 0.881 | 1.16 | 1.07 | 0.929
COc1ccc2c(c1)nc(S(=O)Cc1ncc(C)c(OC)c1C)[n]2[Na] (stereo not given) [Esomeprazole sodium] | 0.964 | 0.985 | 0.953 | 0.972 | 0.978 | 0.964 | 0.875 | 1.02 | 1.07 | 0.973 | 1.08 | 0.906 | 0.899 | 0.869 | 0.993 | 0.856 | 0.783 | 0.743 | 1.05 | 0.828
C=C1CCC2C(C)(CO)C(O)CCC2(C)C1C/C=C1/C(=O)OCC1O (stereo not given) [Andrographolide] | 0.951 | 0.754 | 0.898 | 0.781 | 1.04 | 0.8 | 0.642 | 0.86 | 0.692 | 0.516 | 0.992 | 0.981 | 0.839 | 1.15 | 1 | 0.909 | 0.753 | 0.815 | 0.7 | 0.737
CS(=O)(=O)CCNCc1ccc(-c2ccc3ncnc(Nc4ccc(OCc5cccc(F)c5)c(Cl)c4)c3c2)o1.Cc1ccc(S(=O)(=O)O)cc1.Cc1ccc(S(=O)(=O)O)cc1 | 1.03 | 0.965 | 1.06 | 1.02 | 0.928 | 0.924 | 1.07 | 0.957 | 0.972 | 1.15 | 0.937 | 0.859 | 0.978 | 0.778 | 0.952 | 0.854 | 1.16 | 0.992 | 1.16 | 1.76
CC(=O)c1c(C)c2cnc(Nc3ccc(N4CCNCC4)cn3)nc2n(C2CCCC2)c1=O.O=S(=O)(O)CCO | 0.865 | 0.877 | 0.764 | 0.965 | 0.882 | 0.942 | 0.773 | 1.11 | 0.72 | 1.28 | 0.883 | 1.56 | 0.715 | 1.56 | 0.839 | 1.69 | 0.735 | 2.56 | 0.583 | 5.05
CCN(CC)CCNC(=O)c1c(C)[nH]c(/C=C2\C(=O)Nc3ccc(F)cc32)c1C.O=C(O)CC(O)C(=O)O [Sunitinib Malate] | 1.05 | 1 | 1.05 | 1 | 0.912 | 1.08 | 1.09 | 0.812 | 1.27 | 1.19 | 0.987 | 0.69 | 1.1 | 0.727 | 0.799 | 0.774 | 0.9 | 0.729 | 0.832 | 0.898
COc1ccc2cc1Oc1ccc(cc1)CC1c3cc(c(OC)cc3CCN1C)Oc1c(O)c(OC)cc3c1C(C2)N(C)CC3 (single isomer, unassigned; (+)) [(+)-Fangchinoline] | 0.985 | 0.936 | 0.937 | 0.922 | 0.959 | 1.24 | 0.938 | 0.941 | 0.98 | 1 | 1.11 | 0.99 | 1.11 | 1.05 | 1.21 | 1.38 | 1.09 | 1.53 | 1.35 | 2.48
CC1CC2C3CCC4=CC(=O)C=CC4(C)C3(F)C(O)CC2(C)C1(O)C(=O)CO (stereo not given) [Betamethasone] | 0.773 | 1.53 | 0.988 | 1.5 | 1.72 | 1.32 | 1.42 | 1.05 | 0.855 | 0.835 | 0.0741 | 0.22 | 0.0789 | 0.364 | 0.0736 | 0.251 | 0.0775 | 0.323 | 0.0642 | 0.331
CN1CCCC1CCOC(C)(c1ccccc1)c1ccc(Cl)cc1.O=C(O)/C=C/C(=O)O (stereo not given) [Clemastine Fumarate] | 1.14 | 1.23 | 1.35 | 1.22 | 1.25 | 1.17 | 1.09 | 1.06 | 1.01 | 1.28 | 1.2 | 1.42 | 1.29 | 1.22 | 1.33 | 1.41 | 1.29 | 1.81 | 1.12 | 2.01
C#Cc1cccc(Nc2ncnc3cc4c(cc23)OCCOCCOCCO4)c1 [Icotinib] | 1.3 | 1.27 | 1.2 | 1.61 | 1.09 | 1.9 | 1.27 | 1.61 | 1.19 | 1.18 | 1.13 | 1.22 | 1.18 | 1.29 | 1.19 | 1.14 | 1.12 | 0.851 | 1.12 | 0.94
CC(=O)N1CC(O)CC1C(=O)O (stereo not given) [Oxaceprol] | 0.947 | 0.976 | 1.17 | 0.689 | 0.971 | 0.767 | 1.27 | 0.819 | 0.751 | 0.943 | 0.962 | 0.72 | 0.901 | 0.824 | 0.724 | 0.751 | 0.773 | 0.807 | 0.792 | 0.867
CNC(=NC#N)NCCSCc1nc[nH]c1C [Cimetidine] | 1.02 | 2.02 | 1.26 | 2.03 | 1.72 | 1.6 | 2.12 | 1.48 | 1.74 | 1.06 | 1.15 | 1.49 | 1.12 | 1.31 | 1.18 | 1.37 | 1.3 | 1.58 | 1.22 | 0.853
O=c1oc2cc(O)ccc2s1 [Tioxolone] | 0.771 | 1.12 | 0.806 | 1.06 | 0.891 | 0.953 | 1.08 | 1.03 | 0.752 | 0.933 | 0.896 | 0.934 | 0.812 | 0.76 | 0.615 | 0.79 | 0.814 | 0.941 | 0.571 | 0.69
O=C(O)COc1nn(Cc2ccccc2)c2ccccc12 [Bendazac] | 0.783 | 1.08 | 0.663 | 1.06 | 1.14 | 0.695 | 0.829 | 0.675 | 0.571 | 0.436 | 0.785 | 1.1 | 0.571 | 0.956 | 0.961 | 0.614 | 0.539 | 0.618 | 0.645 | 0.86
Cl.O=C1NCC2(CCN(CCc3ccccc3)CC2)O1 [Fenspiride HCl] | 1.11 | 1.19 | 1.27 | 0.729 | 0.995 | 0.801 | 1.09 | 0.751 | 0.566 | 1.19 | 0.979 | 0.744 | 0.967 | 0.756 | 0.638 | 0.67 | 0.632 | 0.777 | 0.157 | 0.486
CCC1(O)CC2CN(CCc3c([nH]c4ccccc34)C(C(=O)OC)(c3cc4c(cc3OC)N(C)C3C(O)(C(=O)OC)C(OC(C)=O)C5(CC)C=CCN6CCC43C65)C2)C1.O=S(=O)(O)O (stereo not given) [Vinblastine sulfate] | 1.06 | 2.27 | 0.813 | 1.97 | 0.765 | 1.74 | 0.761 | 1.64 | 0.803 | 1.56 | 0.218 | 1.31 | 0.0861 | 0.75 | 0.0826 | 0.604 | 0.0882 | 0.527 | 0.0949 | 0.648
COc1ccnc(CS(=O)c2nc3ccc(-n4cccc4)cc3[nH]2)c1C (stereo not given) [Ilaprazole] | 1.09 | 1.47 | 1.15 | 1.77 | 1.2 | 1.11 | 1.31 | 1.17 | 1.21 | 1.15 | 1.09 | 1.18 | 0.916 | 1.09 | 1.01 | 0.919 | 0.999 | 1.15 | 0.964 | 1.51
COc1cc2ncnc(Nc3ccc(F)c(Cl)c3)c2cc1OCCCN1CCOCC1 [Gefitinib (ZD1839)] | 0.893 | 1.09 | 0.968 | 1.16 | 0.845 | 1.26 | 0.912 | 0.809 | 1.05 | 0.916 | 0.862 | 0.852 | 0.9 | 1.1 | 0.826 | 0.972 | 0.891 | 0.77 | 0.869 | 1.17
Cn1nnc2c(C(N)=O)ncn2c1=O [Temozolomide] | 0.837 | 0.917 | 0.917 | 1.01 | 0.769 | 0.961 | 0.874 | 0.843 | 0.749 | 0.951 | 0.881 | 0.859 | 0.973 | 0.866 | 0.755 | 0.899 | 0.826 | 0.764 | 0.761 | 0.806
COc1ccc(C2CNC(=O)C2)cc1OC1CCCC1 (stereo not drawn) [S- (+)-Rolipram] | 1.12 | 1.01 | 1.02 | 0.945 | 0.93 | 0.87 | 0.695 | 0.943 | 0.716 | 0.403 | 0.958 | 0.988 | 0.845 | 0.712 | 0.949 | 0.802 | 0.64 | 0.781 | 0.766 | 0.834
CCC(Nc1ncnc2[nH]cnc12)c1nc2cccc(F)c2c(=O)n1-c1ccccc1 (stereo not given) [Idelalisib (CAL-101, GS-1101)] | 1.18 | 1.15 | 1.33 | 1.04 | 1.1 | 1.58 | 1.06 | 1.17 | 1.02 | 1.1 | 1.12 | 0.945 | 1.23 | 1.03 | 1.14 | 1.08 | 1.09 | 0.749 | 1.11 | 1.19
